From a collection of fitness landscapes (doi:10.1016/j.celrep.2020.107928)
The full ranking holds about 81,000 sequences; the median of “one-hybrid fitness for binding NBS DNA” is about -0.1, and the highest 2% start at about 0.36. The list shows a part of the results.

B1: Caulobacter ParB omega fusion; a variant is named by its letters at X, in order, B8GW30 (parent)
chain: MESVVVGEPGMSEGRRGLGRGLSALLGEVDAAPAQAPGEQLGGSREAPIEILQRNPDQPRRTFREEDLEDLSNSIREKGVLQPILVRPSPDTAGEYQIVAGERAWRAAQRAGLKTVPIMVRELDDLAVLEIGIIENVQRADLNVLEEALSYKVLMEKFERTQENIAQTIGKSXSHVANXMRLLXLPDEVQSYLVSGELTAXHARAIAAAADPVALAKQIIEGGLSVRETEALARKAPNLSAGKSKGGRPPRVKDTDTQALESDLSSVLGLDVSIDHRGSTGTLTITYATLEQLDDLCNRLTRGI

Variants of: B1
Experiment: one-hybrid fitness for binding NBS DNA (the Noc-binding site; scaled: cognate 1, non-cognate 0); higher = stronger binding
Settings: with NBS DNA site
How it was run: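 Bacterial one-hybrid selection in E. coli USO rpoZ- hisB- pyrF- with a HIS3 reporter carrying the site 19 bp from the promoter, screening Caulobacter ParB libraries with four specificity codons randomised (NNS). Cells grew 48 hours at 37°C on M9-minus-histidine plus 0.1 mM IPTG and 5 mM 3-AT. Plasmids before and after selection were Illumina-sequenced, three replicate libraries pooled, and variants under 10 reads dropped. Fitness is the log change in variant-to-wild-type read ratio, rescaled to cognate 1, non-cognate 0.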

one-hybrid fitness for binding NBS DNA, 0.382:
QQKW

one-hybrid fitness for binding NBS DNA, ≤ 0.2:
PQRV
SQPV
RIGC
TDLG
LMYT
YHLP
DTSR
TGAK
TPSD
VPWV
IPRH
CNRQ
DLET
RHEW
QNIF
ARAA
SKLN
FRFG
AWRF
RSET
PNMG
KDAT
HPSH
TWKT
DMTT
THDP
PLKR
HSIM
DLQC
GPHV
PTSW
CVKG
DLEC
STHI
VWQG
YNHC
SDDI
VKKS
EILG
KSTT
THMF
PMPD
PKCW
TWSS
FIHS
AYPF
HPDF
AREA
YLKA
FTTF
WYLR
KWET
PIQY
CTHS
NSCK
PQYN
TSMN
QGRA
PLSA
VLCF
AIYT
LDGT
PVAG
DRPV
YPAW
PYKP
HLRD
RHGE
YHRG
RWSL
QVDG
CTLY
VVTK
FPHT
AKFR
WELG
LCSN
NGFS
KVKP
TQKT
VQQV
VMAT
CRVS
AMTD
LLTV
TSLQ
RQWH
VHRF
DYST
TNNA
EHCN
IGTF
ENHS
MDQG
VESR
LSRQ
WQLS
YSTV
RVHC
AFWG
LKEL
LMIC
PNKD
WNMP
HCAG
RFKH
RLIW
GNMT
MTIT
KIDL
QTHL
APHN
RSNY
LPAT
ANRQ
NHII
PLVS
EDPV
VWTR
SLPS
DTIC
GVHF
RTVK
ECKC
DVIR
ITAA
YARD
CWHR
LVPT
RSQD
LLGM
IHKH
VMKY
KQAS
GRTP
LIYL
VETM
NMSA
CNFC
SRCT
MSTS
PNYD
RSLF
RCHN
LCEL
VDEV
LMIG
DYGL
LIRL
HGVA
YIQV
APKS
PDLC
DVAS
GYHW
LLYS
TEYC
VGIS
TAWS
NNLA
ENKF
TDQY
AAAM
GVGA
VDTG
GDQT
SKAT
WEMG
AASN
LCST
MHQV
GWGR
HKGS
PNDL
NAKI
RSYA
AANE
NCRR
NYNG
ACLA
KVLY
GSCC
QCGK
RMVD
TKAD
YTHL
RINM
CYFC
RIVQ
DFIT
GRKM
QQEG
KLTI
GPQC
SIDC
LCLD
MREY
YNWS
QTAL
PYPS
QPNN
FPPC
DMIS
IYPN
SMHA
KPQV
MIMS
DHTC
RPQS
MYYC
SGDF
THAK
TFIM
TLND
YQLG
WSRC
TNNF
TWKN
LHDM
TCTL
PMRT
RWDE
LMTH
NLQG
PRTI
TQDL
WCKC
PSEW
SYTS
YKAY
KNER
VRDH
TRRM
YAYS
MYWR
FDVS
QVCP
SCKV
TADM
PDFG
VSSG
WIKE
PCWT
HEKT
NLFS
PFFD
LTRN
RVMF
DKLV
PWTS
HRWG
RPCV
EFST
DPVE
AADM
CCHR
TCNT
ELKC
AEHL
LLNE
PPPN
APNC
DRDL
DLWR
ASQE
TDYN
LDDL
HLMS
MFAV
KLAS
WNGR
SFTR
CCKT
APKT
QPIV
WKQG
PHGG
HAQN
YGLF
NRAS
LRVT
QCLI
HRCC
MELI
ILAD
AAGK
PHHC
LRYR
GMTD
NMKG
LVCC

one-hybrid fitness for binding NBS DNA, 0.288:
RTRV

one-hybrid fitness for binding NBS DNA, 0.227:
RMER

one-hybrid fitness for binding NBS DNA, 0.368:
QSMT

one-hybrid fitness for binding NBS DNA, 0.424:
QRAV

one-hybrid fitness for binding NBS DNA, 0.277:
MLFG

one-hybrid fitness for binding NBS DNA, 0.231:
RCRM

one-hybrid fitness for binding NBS DNA, 0.359:
QHYT

one-hybrid fitness for binding NBS DNA, 0.204:
LRAR

one-hybrid fitness for binding NBS DNA, 0.308:
QLQS

one-hybrid fitness for binding NBS DNA, 1:
QSRR

one-hybrid fitness for binding NBS DNA, 0.243:
GMLH

one-hybrid fitness for binding NBS DNA, 0.32:
QDKR

one-hybrid fitness for binding NBS DNA, 0.397:
QRCN

one-hybrid fitness for binding NBS DNA, 0.373:
QRAK
